Experimental data published in PMC3630190.
Results are given in words; binding and its absence hold for the method and conditions named. In cells and extracts the contact can be indirect. Some binding calls cover weakened binding; strength is not graded here. For some assays here: Sequences can lack the tags named with a protein.

By UniProt entry, the sequences of proteins in these tests, tags left out. Residues count along the entry.
UniProt P56726, residues 33-793: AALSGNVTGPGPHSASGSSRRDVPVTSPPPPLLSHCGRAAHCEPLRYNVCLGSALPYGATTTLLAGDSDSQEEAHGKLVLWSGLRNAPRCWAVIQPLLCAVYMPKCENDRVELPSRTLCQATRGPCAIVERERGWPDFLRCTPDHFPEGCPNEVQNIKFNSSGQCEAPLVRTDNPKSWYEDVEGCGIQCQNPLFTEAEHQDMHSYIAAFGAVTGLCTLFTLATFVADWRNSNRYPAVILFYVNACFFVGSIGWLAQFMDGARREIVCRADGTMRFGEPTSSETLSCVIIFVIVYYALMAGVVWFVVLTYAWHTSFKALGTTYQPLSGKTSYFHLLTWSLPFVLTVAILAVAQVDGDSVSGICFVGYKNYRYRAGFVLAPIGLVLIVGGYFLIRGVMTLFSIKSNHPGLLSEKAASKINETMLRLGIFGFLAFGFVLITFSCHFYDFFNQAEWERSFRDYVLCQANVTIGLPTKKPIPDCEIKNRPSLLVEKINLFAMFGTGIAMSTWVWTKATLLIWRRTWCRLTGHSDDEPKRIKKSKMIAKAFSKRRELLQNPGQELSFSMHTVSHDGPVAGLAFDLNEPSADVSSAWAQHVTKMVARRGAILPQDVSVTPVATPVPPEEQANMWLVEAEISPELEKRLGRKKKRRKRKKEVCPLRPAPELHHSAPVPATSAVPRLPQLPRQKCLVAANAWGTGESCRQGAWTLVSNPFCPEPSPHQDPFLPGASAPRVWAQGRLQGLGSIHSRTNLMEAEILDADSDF
UniProt P49798: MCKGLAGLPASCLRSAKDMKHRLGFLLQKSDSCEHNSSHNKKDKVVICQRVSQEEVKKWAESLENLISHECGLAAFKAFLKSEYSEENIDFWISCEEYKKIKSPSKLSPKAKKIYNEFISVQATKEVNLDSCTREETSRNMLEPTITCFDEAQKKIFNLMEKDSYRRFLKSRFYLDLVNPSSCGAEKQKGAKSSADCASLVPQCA

B1: FL-hRGS5 (human Regulator of G-Protein Signaling 5 with an N-terminal FLAG epitope tag) (protein, UniProt O15539 1-181)
chain: MCKGLAALPHSCLERAKEIKIKLGILLQKPDSVGDLVIPYNEKPEKPAKTQKTSLDEALQWRDSLDKLLQNNYGLASFKSFLKSEFSEENLEFWIACEDYKKIKSPAKMAEKAKQIYEEFIQTEAPKEVNIDHFTKDITMKNLVEPSLSSFDMAQKRIHALMEKDSLPRFVRSEFYQELIK
B2: hRGS5-FL (human Regulator of G-Protein Signaling 5 with a C-terminal FLAG epitope tag) (protein, UniProt O15539 1-181)
chain: B1 chain
B3: HA-hRGS5 (human RGS5, 3X HA-tagged, N-terminus) (protein, UniProt O15539 1-181)
chain: B1 chain
B4: HA-hRGS1 (human RGS1, 3X HA-tagged, N-terminus) (protein, UniProt Q08116 1-209)
chain: MRAAAISTPKLDKMPGMFFSANPKELKGTTHSLLDDKMQKRRPKTFGMDMKAYLRSMIPHLESGMKSSKSKDVLSAAEVMQWSQSLEKLLANQTGQNVFGSFLKSEFSEENIEFWLACEDYKKTESDLLPCKAEEIYKAFVHSDAAKQINIDFRTRESTAKKIKAPTPTCFDEAQKVIYTLMEKDSYPRFLKSDIYLNLLNDLQANSLK
B5: HA-hRGS2 (human RGS2, 3X HA-tagged, N-terminus) (protein, UniProt P41220 1-211)
chain: MQSAMFLAVQHDCRPMDKSAGSGHKSEEKREKMKRTLLKDWKTRLSYFLQNSSTPGKPKTGKKSKQQAFIKPSPEEAQLWSEAFDELLASKYGLAAFRAFLKSEFCEENIEFWLACEDFKKTKSPQKLSSKARKIYTDFIEKEAPKEINIDFQTKTLIAQNIQEATSGCFTTAQKRVYSLMENNSYPRFLESEFYQDLCKKPQITTEPHAT
B6: hRGS8 (human RGS8 with a HA epitope tag) (protein, UniProt P57771 1-180)
chain: MAALLMPRRNKGMRTRLGCLSHKSDSCSDFTAILPDKPNRALKRLSTEEATRWADSFDVLLSHKYGVAAFRAFLKTEFSEENLEFWLACEEFKKTRSTAKLVSKAHRIFEEFVDVQAPREVNIDFQTREATRKNLQEPSLTCFDQAQGKVHSLMEKDSYPRFLRSKMYLDLLSQSQRRLS
B7: HA-hRGS16 (human RGS16, 3X HA-tagged, N-terminus) (protein, UniProt O15492 1-202)
chain: MCRTLAAFPTTCLERAKEFKTRLGIFLHKSELGCDTGSTGKFEWGSKHSKENRNFSEDVLGWRESFDLLLSSKNGVAAFHAFLKTEFSEENLEFWLACEEFKKIRSATKLASRAHQIFEEFICSEAPKEVNIDHETHELTRMNLQTATATCFDAAQGKTRTLMEKDSYPRFLKSPAYRDLAAQASAASATLSSCSLDEPSHT

Molecular target: smoothened (Smo) (mouse (endogenous in C3H10T1/2)) (UniProt P56726)
Test: co-IP; 100 µg whole cell extract of transfected C3H10T1/2 cells (50 mM Tris/HCl pH 8.0, 120 mM NaCl, 0.5% NP-40, 1 mM EDTA); endogenous acetylated tubulin, Smo or β-tubulin immunoprecipitated overnight at 4°C with antibody and Protein A/G+ or G+ agarose; tagged RGS protein detected by α-FLAG or α-HA immunoblot

Question: Which binding does the source give for B1 here?
Answer: The binding was “binds”.

Question: Which binding does the source give for B2 here?
Answer: The binding was “binds”.

Question: B3 was tested. Which binding did it give?
Answer: The binding was “binds”.

Question: B4 was tested. Which binding did it give?
Answer: The binding was “no binding”.

Question: How did the binding turn out when B5 was run?
Answer: The binding was “no binding”.

Question: B6 was tested. Which binding did it give?
Answer: Its binding is “no binding”.

Question: For B7, which binding is on record?
Answer: Its binding is “no binding”.

Molecular target: smoothened (Smo) (mouse (endogenous in C3H10T1/2)) (UniProt P56726)
Test: as above
Remark: another data set of the same source

Question: For “HA-hRGS4 (human RGS4, 3X HA-tagged, N-terminus) (from UniProt P49798 1-205)”, which binding is on record?
Answer: The binding was “no binding”.
